Measurements taken from PubChem BioAssay AID504339 (National Center for Advancing Translational Sciences (NCATS), 2011).
About 17,000 (4.4%) of roughly 390,000 compounds were called active. This list was built around the results that the source calls inconclusive (neither active nor inactive); the mix of calls is not that of the screen. The call rests on the fitted dose curve; in most records, active means well fitted inhibition curve with a large enough effect; inconclusive means small, poorly fitted or top-dose-only effect; inactive means no such curve, though single readings can be large or run the other way. A potency beside an inconclusive call is a rough fit, not a confirmed value.

What follows are molecules tested against Lysine-specific demethylase 4A (Homo sapiens) (UniProt O75164) (assay: qHTS Assay for Inhibitors of JMJD2A-Tudor Domain). Settings: AlphaScreen JMJD2A-Tudor / H3K4me3 peptide binding; activity change, negative = inhibition: at 114 µM (top of the series).
Chain of UniProt O75164 (O75164 whole entry, looked up, the tested form may be a part): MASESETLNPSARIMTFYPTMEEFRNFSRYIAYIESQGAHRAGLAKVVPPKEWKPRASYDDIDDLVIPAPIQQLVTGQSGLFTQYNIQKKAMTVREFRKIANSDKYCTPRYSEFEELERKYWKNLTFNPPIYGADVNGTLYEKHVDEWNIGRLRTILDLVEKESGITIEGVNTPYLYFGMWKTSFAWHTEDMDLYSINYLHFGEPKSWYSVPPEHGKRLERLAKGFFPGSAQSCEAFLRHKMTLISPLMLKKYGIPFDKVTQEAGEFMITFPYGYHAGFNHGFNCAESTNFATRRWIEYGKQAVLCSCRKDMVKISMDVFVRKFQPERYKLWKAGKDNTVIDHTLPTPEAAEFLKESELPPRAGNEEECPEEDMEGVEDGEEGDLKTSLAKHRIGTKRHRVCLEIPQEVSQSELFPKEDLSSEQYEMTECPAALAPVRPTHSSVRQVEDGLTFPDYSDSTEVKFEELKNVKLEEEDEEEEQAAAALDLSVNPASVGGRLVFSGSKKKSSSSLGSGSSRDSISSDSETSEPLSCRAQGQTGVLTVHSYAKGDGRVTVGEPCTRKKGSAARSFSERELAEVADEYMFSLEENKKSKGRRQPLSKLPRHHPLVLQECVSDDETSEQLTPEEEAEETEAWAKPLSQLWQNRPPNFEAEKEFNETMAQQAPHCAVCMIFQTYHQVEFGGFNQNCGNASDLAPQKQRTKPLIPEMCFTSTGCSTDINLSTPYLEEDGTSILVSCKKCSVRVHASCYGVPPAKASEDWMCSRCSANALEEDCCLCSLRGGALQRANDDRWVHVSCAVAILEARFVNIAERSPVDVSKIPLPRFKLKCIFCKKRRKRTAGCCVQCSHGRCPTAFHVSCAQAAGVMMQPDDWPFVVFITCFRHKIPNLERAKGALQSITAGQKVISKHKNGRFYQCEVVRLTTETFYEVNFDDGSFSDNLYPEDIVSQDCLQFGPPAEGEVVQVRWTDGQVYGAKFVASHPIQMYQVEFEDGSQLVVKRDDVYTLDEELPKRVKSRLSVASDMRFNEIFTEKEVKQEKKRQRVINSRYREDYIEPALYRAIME
Further: nearly all actives have a fitted effect of over 50% in size.
On the % scale 0 is the no-effect control and ±100 the full control effect; potency means the concentration at half of the fitted maximal effect; tags describe the fitted curve by direction and shape.

Activity change, negative = inhibition, inactive:
COc1ccccc1N1CCN(CCCC(=O)c2ccc(F)cc2)CC1 -17.3%
Cc1ccc(SCc2nc(-c3ccc(C(=O)Nc4cc(C)ccc4C)cc3)oc2C)cc1 -5.52%
Cc1ccc(NC(=O)CN2C(=O)C3C4C=CC(C4)C3C2=O)cc1S(=O)(=O)N(C)C (stereo unspecified) -11.3%
O=C(CCN1C(=O)/C(=C\c2ccccc2)SC1=S)NNC(=O)c1cccnc1 -11.2%
O=C(NCc1cccnc1)C(=O)NC1CCCCC1 -3.32%
Cn1c(=O)c2c(SCC(=O)NCc3ccc(F)cc3)nc(-c3ccccc3Cl)nc2n(C)c1=O -11.7%
O=C(c1ccc(F)cc1)N1CCC(n2nnc3ccccc32)CC1 -0.369%
C=CC[C@@H](CC(=O)N[C@H](CO)Cc1ccccc1)C(=O)N[C@H](COC(=O)[C@@H](CC=C)Cc1ccc(F)cc1)Cc1c[nH]c2ccccc12 -35.2%
C/C(CC(=O)Nc1ccc([N+](=O)[O-])cc1)=N\NC(=O)c1ccccc1O -35.9%
COc1ccc(-c2nc(CC(=O)Nc3cccc(S(=O)(=O)NC4=NCCC4)c3)cs2)cc1 -17.9%
CC(=O)Nc1c(Br)cc2c(c1Br)Cc1cc([N+](=O)[O-])ccc1-2 -13.3%
c1coc(CNC2C3CC4CC(C3)CC2C4)c1 (stereo unspecified) -13.2%
N#CCCN1CCN(C(CNS(=O)(=O)c2ccc(Cl)cc2)c2ccccc2)CC1 (stereo unspecified) -6.94%
COc1ccc2c(c1)c1c(c(=O)n(-c3ccc(OC)c(OC)c3)c(=O)n1CC(=O)N1CCCC1)n2C -9.31%
O=C(Nc1ccc(S(=O)(=O)Nc2ccccc2)cc1)c1ccc(CN2CCOCC2)cc1 -12.3%
O=C(Nc1ccc(F)cc1)Nc1ccc([N+](=O)[O-])cn1 -4.84%
CCCN(CC1CC1)C(=O)COC(=O)c1oc2c(F)cccc2c1C 15.9%
CCCN(CCC)C(=O)c1ccc2c(c1)N(Cc1ccccc1)C(=O)CS2=O (stereo unspecified) -29.6%
COc1cc2c(cc1OC)CN(CC(=O)Nc1cccc(C)c1)CC2 11% [at 57.1 µM]
O=c1c2ccccc2nc(-c2ccccc2)n1Cc1ccco1 -26.1%
COc1ccc(-n2c(=S)[nH]c3cc(C(=O)NCc4cccnc4)ccc3c2=O)c(OC)c1 -23.6%
CCOC(=O)c1[nH]c(C)c(CCC(=O)Nc2cccc(SC)c2)c1C -33.1%
CCC(C)C(NC(=O)C1CCC(C)CC1)C(=O)NCCc1ccc(S(N)(=O)=O)cc1 (stereo unspecified) -13.8%
CCOc1ccc(S(=O)(=O)N2CCOCC2)cc1NC(=O)Cc1c(F)cccc1Cl -4.12%

Potency, inconclusive:
Cc1ccc(-n2cc(CN3CCN(Cc4nccn4C)CC3)c(-c3cccc(C)c3)n2)cc1 31.6 µM [inhibitor, partial curve]
Cc1ccc(-c2nn(CCC(=O)O)cc2/C=C\C(=O)c2ccc(Br)cc2)cc1 79.4 µM [inhibitor, partial curve]
Cc1ccccc1C(=O)OCC(=O)NCc1ccco1 44.7 µM [inhibitor, partial curve]
O=S(=O)(c1ccc(NC(=S)N/N=C/c2ccc(O)c(O)c2)cc1)N1CCOCC1 56.2 µM [inhibitor, partial curve]
O=C1C2C3C=CC(C3)C2C(=O)N1/N=C/c1cc(Br)cc([N+](=O)[O-])c1O (stereo unspecified) 79.4 µM [inhibitor, partial curve]
O=C(Nc1ccccc1F)c1coc(=O)c(Br)c1 79.4 µM [inhibitor, single point]
COc1ccc(C(=O)CSc2nnc(CNc3ccc(C)cc3C)n2Cc2ccco2)cc1 39.8 µM [inhibitor, partial curve]
Cc1ccc(NS(=O)(=O)c2ccc3c(c2)[C@H]2C=CC[C@H]2[C@@H](c2ccc(F)cc2)N3)cc1C 56.2 µM [inhibitor, single point]
CCc1ccc(OCc2cccc(C(=O)N/N=C\c3cnn(C)c3C)c2)cc1 50.1 µM [inhibitor, partial curve]
Cc1ccc(-n2ncc3c2CC(C)(C)CC3NC(=O)CCCN2CCCCC2=O)cc1 (stereo unspecified) 3.98 µM [inhibitor, partial curve, poor fit]
Nc1nc(SCC(=O)c2ccc(F)cc2)n[nH]1 79.4 µM [inhibitor, partial curve]
C=CCn1c2[n+](c3ccccc3c1=O)CCCCC2 39.8 µM [inhibitor, single point]
O=C(N/N=C/c1ccc(OCc2ccccc2)cc1)c1cc[n+](Cc2ccccc2)cc1 50.1 µM [inhibitor, partial curve]
COc1ccc(SCC(CC(C)C)N2CCN(CCc3ccccc3)CCC2=O)cc1 (stereo unspecified) 50.1 µM [inhibitor, partial curve]
Cn1c(=O)c2[nH]c(N3CCCCC3)nc2n(C)c1=O 56.2 µM [inhibitor, partial curve]
COC(=O)C1=C(C)N(Cc2ccccc2)C(=O)N[C@H]1c1cccc(C(F)(F)F)c1 89.1 µM [inhibitor, partial curve]
CCC1(C)NC(=O)N(CC(=O)Nc2sc3c(c2C(N)=O)CCC3)C1=O (stereo unspecified) 44.7 µM [inhibitor, partial curve]
COc1cc(C(=O)NC2CCN(CC(=O)Nc3cccc(C)c3C)CC2)cc(OC)c1OC 12.6 µM [inhibitor, single point]
CC1Cc2cc(/C(O)=C3/C(=O)C(=O)N(CCN4CCOCC4)C3c3ccc([N+](=O)[O-])cc3)ccc2O1 (stereo unspecified) 39.8 µM [inhibitor, partial curve]
O=C(CCN1C(=O)/C(=C/c2ccccc2Cl)SC1=S)NCCCN1CCOCC1 56.2 µM [inhibitor, partial curve]
CSCCC(NC(=O)COc1ccccc1)C(=O)OCC(=O)c1cc2ccccc2o1 (stereo unspecified) 56.2 µM [inhibitor, partial curve]
CC1Oc2cc3oc4c(O)c(O)ccc4c(=O)c3c(O)c2C1(C)C (stereo unspecified) 56.2 µM [inhibitor, partial curve]
COc1ccc(OC)c(NC(=O)CSC2=Nc3ccccc3C3=NC(CC(=O)NCc4ccc(F)cc4)C(=O)N23)c1 (stereo unspecified) 89.1 µM [inhibitor, single point]
CCOC(=O)C1CCCN(Cc2nc3ccc([N+](=O)[O-])cc3c(=O)n2-c2ccc(OC)cc2OC)C1 (stereo unspecified) 35.5 µM [inhibitor, partial curve]
Cc1cccc(C(=O)NC(=S)N(C)C2CCCCC2)c1 56.2 µM [inhibitor, partial curve]
COC(=O)c1ccc2c(C)c(C3(O)CCCCC3)[nH]c2c1 89.1 µM [inhibitor, partial curve]
O=S(=O)(c1ccc(-c2csc(=Nc3ccc(OC(F)(F)Cl)cc3)n2CCCO)cc1)N1CCCC1 31.6 µM [inhibitor, partial curve]
COC(=O)c1ccccc1NC(=O)NCc1ccncc1 15.8 µM [inhibitor, single point]
CC(=NO)c1ccc2c(c1)Cc1cc([N+](=O)[O-])ccc1-2 39.8 µM [inhibitor, full curve]
CCc1ccccc1NC(=O)c1cc2sccc2n1C 44.7 µM [inhibitor, partial curve]
Oc1ccc(C[C@@H]2CNC(=S)N2CCCCC2CCCCC2)cc1 56.2 µM [inhibitor, partial curve]
CC(=O)c1ccc(N=c2scc(C)n2C(C)C)cc1 50.1 µM [inhibitor, partial curve]
C/C(=N\N1CCN(c2ccc(Cl)cc2)CC1)c1cccc([N+](=O)[O-])c1 20 µM [inhibitor, full curve]
COc1ccc(OC)c(NC(=O)Nc2cccc(Cn3cccn3)c2)c1 56.2 µM [inhibitor, partial curve]
NS(=O)(=O)c1ccc(Nc2nc(-c3ccccc3)cs2)cc1 15.8 µM [inhibitor, full curve]
Cc1cccc(C(=O)Nc2nnc(-c3ccco3)o2)c1 70.8 µM [inhibitor, single point]
Cc1ccc2nc(-c3ccccn3)cc(C(=O)N3CCN(c4ncccn4)CC3)c2c1 89.1 µM [inhibitor, single point]
O=C(COC(=O)c1c2c(nc3ccccc13)/C(=C/c1ccco1)CC2)NC1CCCC1 28.2 µM [inhibitor, partial curve]

Potency, active:
COc1cccc(CN2CCN(Cc3cccc(Br)c3)CC2)c1OC 3.16 µM
CN(C)c1ccc(CNc2ccc3c(c2)ncn3C(C)(C)C)cc1 14.1 µM
Cc1ccc(S(=O)(=O)N2CCOCC2)cc1NC(=O)CNC(C)c1ccccc1 (stereo unspecified) 1.26 µM
CCOC(=O)N1CCC(N2CCN(S(=O)(=O)c3ccc(OC)cc3)CC2)CC1 17.8 µM
CCCCc1cn([C@@H](CCCCN)C(=O)N2CCNCC2)nn1 56.2 µM
N#Cc1c(NC(=O)COC(=O)c2nccnc2N)sc2c1CCCC2 25.1 µM
CCCCN(C)C(=O)c1nc2ccccn2c1CN1CCC[C@H]1C(=O)OC 39.8 µM
O=C(CN(c1cccc(Br)c1)S(=O)(=O)c1ccccc1)N/N=C/c1cc([N+](=O)[O-])ccc1O 50.1 µM
O=[N+]([O-])c1ccc(CN2CCN(c3ccc(F)cc3)CC2)o1 11.2 µM
